# The list shows a part of the results.
# Tests used:
# Assay in all cases: glycan array binding signal (z-score within array); higher = stronger binding
# Details in all cases: glycan notation: IUPAC condensed, linker removed
# [1] = biological target: Gal6S(b1-4)Glc
# How it was run: (§1)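 From the Consortium for Functional Glycomics database, 3228 arrays were curated, keeping only those whose protein sequence was available. Binding is given as a within-array Z-score averaged across arrays sharing a protein sequence and across linkers. Negative Z-scores can be read as non-binding.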
# [2] = biological target: Gal6S(b1-4)Glc6S
# How it was run: as §1
# [3] = biological target: Gal6S(b1-4)GlcNAc
# How it was run: as §1
# [4] = biological target: Gal6S(b1-4)GlcNAc6S
# How it was run: as §1
# [5] = biological target: GalNAc(a1-3)Gal
# How it was run: as §1
# [6] = biological target: GalNAc(a1-3)GalNAc
# How it was run: as §1
# [7] = biological target: GalNAc(a1-3)GalNAc(b1-3)Gal(a1-4)Gal(b1-4)Glc
# How it was run: as §1
# [8] = biological target: GalNAc(a1-3)GalNAc(b1-3)Gal(a1-4)Gal(b1-4)GlcNAc
# How it was run: as §1
# [9] = biological target: GalNAc(b1-3)Gal
# How it was run: as §1
# [10] = biological target: GalNAc(b1-3)Gal(a1-4)Gal(b1-4)GlcNAc
# How it was run: as §1
# [11] = biological target: GalNAc(b1-3)Gal(a1-4)Gal(b1-4)GlcNAc(b1-3)Gal(b1-4)Glc
# How it was run: as §1
# [12] = biological target: GalNAc(b1-3)Gal(a1-6)Gal(b1-4)Glc
# How it was run: as §1
# [13] = biological target: GalNAc(b1-3)GalNAc
# How it was run: as §1
# [14] = biological target: GalNAc(b1-3)GlcNAc
# How it was run: as §1
# [15] = biological target: GalNAc(b1-4)Gal(b1-4)Glc
# How it was run: as §1
# [16] = biological target: GalNAc(b1-4)GlcNAc
# How it was run: as §1
# [17] = biological target: GalNAc(b1-4)GlcNAc(b1-2)Man
# How it was run: as §1
# [18] = biological target: GalNAc(b1-4)GlcNAc(b1-2)Man(a1-3)[GalNAc(b1-4)GlcNAc(b1-2)Man(a1-6)]Man(b1-4)GlcNAc(b1-4)GlcNAc
# How it was run: as §1
# [19] = biological target: GalNAc(b1-4)GlcNAc(b1-3)GalNAc(b1-4)GlcNAc
# How it was run: as §1
# [20] = biological target: GalNAc(b1-4)GlcNAc6S
# How it was run: as §1
# [21] = biological target: GalNAc(b1-6)GalNAc
# How it was run: as §1
# [22] = biological target: GalNAc3S(b1-4)GlcNAc
# How it was run: as §1
# [23] = biological target: GalNAc3S(b1-4)GlcNAc3S
# How it was run: as §1
# [24] = biological target: GalNAc3S(b1-4)[Fuc(a1-3)]GlcNAc
# How it was run: as §1
# [25] = biological target: GalNAc4S6S(b1-4)GlcNAc
# How it was run: as §1
# [26] = biological target: GalNAc6S(b1-4)GlcNAc
# How it was run: as §1
# [27] = biological target: Glc(a1-4)Glc
# How it was run: as §1
# [28] = biological target: Glc(a1-4)Glc(a1-4)Glc(a1-4)Glc
# How it was run: as §1
# [29] = biological target: Glc(a1-6)Glc(a1-6)Glc
# How it was run: as §1
# [30] = biological target: Glc(a1-6)Glc(a1-6)Glc(a1-6)Glc
# How it was run: as §1
# [31] = biological target: Glc(b1-4)Glc
# How it was run: as §1
# [32] = biological target: Glc(b1-6)Glc
# How it was run: as §1
# [33] = biological target: GlcA(b1-3)Gal
# How it was run: as §1
# [34] = biological target: GlcA(b1-3)GlcNAc
# How it was run: as §1
# [35] = biological target: GlcA(b1-6)Gal
# How it was run: as §1
# [36] = biological target: GlcA3S(b1-3)Gal(b1-4)GlcNAc(b1-2)Man
# How it was run: as §1
# [37] = biological target: GlcA3S(b1-3)Gal(b1-4)GlcNAc(b1-3)Gal(b1-4)Glc
# How it was run: as §1
# [38] = biological target: GlcNAc(a1-3)Gal(b1-4)GlcNAc
# How it was run: as §1
# [39] = biological target: GlcNAc(a1-4)Gal(b1-3)GlcNAc
# How it was run: as §1
# [40] = biological target: GlcNAc(a1-4)Gal(b1-4)GalNAc
# How it was run: as §1
# [41] = biological target: GlcNAc(a1-4)Gal(b1-4)GlcNAc
# How it was run: as §1
# [42] = biological target: GlcNAc(a1-4)Gal(b1-4)GlcNAc(b1-3)Gal(b1-4)Glc
# How it was run: as §1
# [43] = biological target: GlcNAc(a1-4)Gal(b1-4)GlcNAc(b1-3)Gal(b1-4)GlcNAc
# How it was run: as §1
# [44] = biological target: GlcNAc(a1-4)Gal(b1-4)GlcNAc(b1-3)Gal(b1-4)GlcNAc(b1-3)Gal(b1-4)GlcNAc
# How it was run: as §1
# [45] = biological target: GlcNAc(a1-4)Gal(b1-4)GlcNAc(b1-3)Gal(b1-4)[Fuc(a1-3)]GlcNAc(b1-3)Gal(b1-4)[Fuc(a1-3)]GlcNAc
# How it was run: as §1
binder,measurement,setting,value
"CrataBL (Crataeva tapia), C0HJA4 (protein) AILTGVPYYILPSTSRAGFSPDNLRKNTSQLSCPLDLITQLRFPRRIGVPVIFTPQNSSLKVVPLSHNLNIHTCSDLWFCPESKIWTVKSSLTHGGSVVTTGGTFRSLGSWFRIERHGDSYKLVHCPRGSTPCRDVGIETVGGGGRRYLAPRDRPLAVRFTRASG",glycan array binding signal (z-score),[1],0.117
same,glycan array binding signal (z-score),[2],2.96
same,glycan array binding signal (z-score),[3],0.307
same,glycan array binding signal (z-score),[4],5.29
same,glycan array binding signal (z-score),[5],-0.242
same,glycan array binding signal (z-score),[6],-0.381
same,glycan array binding signal (z-score),[7],-0.362
same,glycan array binding signal (z-score),[8],-0.222
same,glycan array binding signal (z-score),[9],-0.46
same,glycan array binding signal (z-score),[10],-0.104
same,glycan array binding signal (z-score),[11],-0.134
same,glycan array binding signal (z-score),[12],-0.528
same,glycan array binding signal (z-score),[13],-0.27
same,glycan array binding signal (z-score),[14],-0.306
same,glycan array binding signal (z-score),[15],0.515
same,glycan array binding signal (z-score),[16],0.012
same,glycan array binding signal (z-score),[17],-0.071
same,glycan array binding signal (z-score),[18],-0.47
same,glycan array binding signal (z-score),[19],-0.278
same,glycan array binding signal (z-score),[20],1.01
same,glycan array binding signal (z-score),[21],-0.223
same,glycan array binding signal (z-score),[22],0.332
same,glycan array binding signal (z-score),[23],1.59
same,glycan array binding signal (z-score),[24],0.423
same,glycan array binding signal (z-score),[25],5.23
same,glycan array binding signal (z-score),[26],0.105
same,glycan array binding signal (z-score),[27],-0.279
same,glycan array binding signal (z-score),[28],0.623
same,glycan array binding signal (z-score),[29],-0.469
same,glycan array binding signal (z-score),[30],0.298
same,glycan array binding signal (z-score),[31],-0.413
same,glycan array binding signal (z-score),[32],-0.431
same,glycan array binding signal (z-score),[33],1.41
same,glycan array binding signal (z-score),[34],0.158
same,glycan array binding signal (z-score),[35],1.13
same,glycan array binding signal (z-score),[36],1.19
same,glycan array binding signal (z-score),[37],0.289
same,glycan array binding signal (z-score),[38],-0.495
same,glycan array binding signal (z-score),[39],-0.374
same,glycan array binding signal (z-score),[40],0.352
same,glycan array binding signal (z-score),[41],-0.219
same,glycan array binding signal (z-score),[42],-0.325
same,glycan array binding signal (z-score),[43],0.049
same,glycan array binding signal (z-score),[44],-0.479
same,glycan array binding signal (z-score),[45],0.807
